# Results taken from PMC4336329 (PLoS ONE, 2015).
# The whole screen tested about 310,000 compounds, of which about 2,200 (0.71%) showed an effect of 50% or more. Effects have a minus sign here. Some of the results follow.
# Target: human ether-à-go-go-related gene (hERG) potassium channel (human, UniProt Q12809)
# Assay: primary screen, population patch clamp on CHO cells stably expressing hERG
# Chain of human ether-à-go-go-related gene (hERG) potassium channel (Q12809 whole entry, looked up): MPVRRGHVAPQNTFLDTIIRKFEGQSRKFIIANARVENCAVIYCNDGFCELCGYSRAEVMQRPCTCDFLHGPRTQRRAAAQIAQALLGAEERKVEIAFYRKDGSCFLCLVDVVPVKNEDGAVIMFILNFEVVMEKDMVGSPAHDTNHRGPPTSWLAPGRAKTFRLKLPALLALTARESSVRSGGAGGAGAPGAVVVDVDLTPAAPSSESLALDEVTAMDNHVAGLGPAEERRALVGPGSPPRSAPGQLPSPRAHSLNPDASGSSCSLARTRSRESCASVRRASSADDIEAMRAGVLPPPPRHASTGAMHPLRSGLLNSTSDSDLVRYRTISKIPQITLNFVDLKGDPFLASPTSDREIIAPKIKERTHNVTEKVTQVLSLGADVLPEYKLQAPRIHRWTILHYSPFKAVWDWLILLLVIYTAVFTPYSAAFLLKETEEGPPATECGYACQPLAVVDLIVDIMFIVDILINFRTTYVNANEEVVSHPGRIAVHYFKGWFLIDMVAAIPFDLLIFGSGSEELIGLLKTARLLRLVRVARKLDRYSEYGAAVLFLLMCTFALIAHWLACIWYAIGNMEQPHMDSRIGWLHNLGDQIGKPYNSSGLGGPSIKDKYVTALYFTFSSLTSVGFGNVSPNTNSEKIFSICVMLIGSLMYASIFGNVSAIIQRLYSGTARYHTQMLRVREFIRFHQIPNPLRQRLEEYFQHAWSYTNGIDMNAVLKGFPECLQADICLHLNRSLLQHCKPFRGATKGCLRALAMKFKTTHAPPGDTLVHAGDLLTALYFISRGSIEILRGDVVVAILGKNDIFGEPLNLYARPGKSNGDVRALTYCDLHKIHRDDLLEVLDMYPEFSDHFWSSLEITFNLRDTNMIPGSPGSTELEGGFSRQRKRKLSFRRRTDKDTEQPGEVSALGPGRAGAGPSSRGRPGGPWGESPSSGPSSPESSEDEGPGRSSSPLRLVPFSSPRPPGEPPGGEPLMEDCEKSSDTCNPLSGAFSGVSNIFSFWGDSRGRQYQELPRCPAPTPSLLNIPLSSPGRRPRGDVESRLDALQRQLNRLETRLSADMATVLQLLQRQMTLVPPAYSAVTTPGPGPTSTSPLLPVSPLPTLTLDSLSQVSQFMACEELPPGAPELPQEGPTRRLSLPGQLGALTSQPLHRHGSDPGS
row,Structure (SMILES),"hERG current change (%, negative = inhibition) at 1uM [%]"
1,COc1cccc2cc(C(N)=O)/c(=N\NC(=O)c3ccccc3)oc12,17.8
2,COc1ccccc1N1CCN(C(=O)CCC(=O)N2CCN(c3ccccc3OC)CC2)CC1,13.4
3,CCOc1c(CNc2nnnn2C)cccc1OC,8.02
4,Cc1ccc(C)c(NC(=O)c2ccc(OCc3c(C)noc3C)cc2)c1,-0.0437
5,NC(=O)NC(CC(=O)NCc1ccc2c(c1)OCO2)c1ccccc1Cl (stereo not shown),19.8
6,COc1ccc(OCC(=O)N/N=C(\C)c2cccs2)cc1,11.7
7,C=CCN(CC#CCOc1ccccc1OC)CC=C.O=C(O)C(=O)O,7.54
8,Cc1nn(-c2ccccc2)c(C)c1/C=N/NC(=O)CSc1nc2ccccc2c(=O)n1-c1ccccc1,7.63
9,Cc1ccc(-c2nn(-c3ccccc3)cc2/C=N/NC(=O)c2ccncc2)o1,10.8
10,CCCCC(=O)Nc1ccccc1C#N,11.1
11,COc1ccc(Nc2nc(NCC3CCCO3)nc(N)c2[N+](=O)[O-])cc1 (stereo not shown),2.2
12,CCc1ccc(NC(=O)Cc2ccc(OC)cc2)cc1,11.1
13,CCCC12C(=O)C(C)(C(c3ccccc3)=C1c1ccccc1)C1C(=O)N(c3ccc(C)cc3)C(=O)C12 (stereo not shown),-0.609
14,O=C(/C=C/c1ccccc1)Nc1nc(-c2ccncc2)cs1,4.02
15,CC(Oc1ccc(Cl)cc1)C(=O)N/N=C/c1ccsc1 (stereo not shown),8.98
16,CC1(C)Cc2c(sc3nc(SCC(=O)NCc4ccccc4)n(-c4ccccc4)c(=O)c23)CS1,6.37
17,CCOc1ccc(CN(C(=O)c2cccs2)C2CCS(=O)(=O)C2)cc1 (stereo not shown),18
18,CCOc1ccc(C(=O)Nc2ncccc2Cl)cc1.Cl,15.2
19,Cc1nnsc1C(=O)NNC(=O)Nc1ccccc1,9.66
20,O=C(OC1CCOC1=O)c1ccc(CO)cc1 (stereo not shown),15
21,Cc1cccc(NC(=O)CSc2ccc(-c3ccco3)nn2)c1,-0.275
22,CSc1ccccc1C(=O)N1CCCCC1,0.118

row,Structure (SMILES),"hERG current change (%, negative = inhibition) at 1uM [%]"
1,CN(C)c1nc(Cl)nc(NCCOc2ccccc2)n1,6.37
2,O=C(O)C(=O)O.OC(CNC1CCCCCCC1)c1ccccc1 (stereo not shown),10.4
3,CCOc1ccc(CCNC(=O)C2CCN(c3nn4c(=O)cc(C)nc4s3)CC2)cc1,-4.93
4,O=C(Nc1ccc(N2CCCC2)cc1)c1cccc(-c2cc3ccccc3oc2=O)c1,20
5,COc1cc(/C=N/NC(=O)CNS(=O)(=O)c2ccc(C)cc2)cc(OC)c1OC,11.7
6,COc1ccc(-c2c(C(C)=O)c(C)nc3sc4c(=N)n(N)cnc4c23)cc1,10.8
7,Cc1c(Cl)c([N+](=O)[O-])nn1CC(=O)NC(C)c1ccccc1 (stereo not shown),12.2
8,CCc1nnc(NC(=O)CCC(=O)N2CCN(Cc3ccc(Cl)cc3)CC2)s1,-5.62
9,O=C(N/N=C/C=C\c1ccccc1[N+](=O)[O-])c1ccncc1,10.5
10,COC(=O)c1ccc(C(c2c(N)n(CC(C)C)c(=O)[nH]c2=O)N2CCN(c3ccccc3)CC2)cc1 (stereo not shown),6.67
11,Cc1cccnc1CN1CCN(Cc2nc(C(c3ccccc3)c3ccccc3)no2)CC1,-26.5
12,CCOc1ccc2nc(NC(=O)C3CCCN(S(=O)(=O)c4cccs4)C3)sc2c1 (stereo not shown),5.49
13,Cc1ccc2nc3ccc(N4CCCC4)nn3c(=O)c2c1,7.78
14,O=S(=O)(c1ccc2oc3ccccc3c2c1)N1CCOCC1,-3.92
15,COc1ccc(OCC(=O)Nc2ccc3oc(-c4ccncc4)nc3c2)cc1,8.04
16,O=C(Nc1ccccc1-c1nc2ccccc2s1)c1ccco1,-0.434
17,Cc1cc(NC(=O)COC(=O)CCC(=O)c2ccc(F)cc2)no1,11.5
18,COc1ccccc1NC(=O)c1ccc(-n2cccn2)c([N+](=O)[O-])c1,3.64
19,COc1cccc(C(=O)Nc2nnc(S(=O)(=O)Nc3cccc(C)c3)s2)c1,2.89
20,COc1cc(C2C(C(=O)c3ccco3)=C(O)C(=O)N2Cc2cccnc2)cc(OC)c1OC (stereo not shown),13.8
21,COCCNC(=S)N1CCc2cc(OC)c(OC)cc2C1COc1ccc(C(C)C)cc1 (stereo not shown),13.4
22,CC(C)(C)CC(=O)Nc1ccc(C(N)=O)cc1,5.78

row,Structure (SMILES),"hERG current change (%, negative = inhibition) at 1uM [%]"
1,O=C(CSc1nc2c(c(C(F)(F)F)n1)CCc1ccccc1-2)NCc1ccco1,11.7
2,COc1ccc(C2/C=C\CN(C(=O)CC(C)(C)C)CC(=O)N2Cc2ccc(F)cc2)cc1 (stereo not shown),12.8
3,Cc1cccc(N(CC(=O)NCc2ccccc2)C(=O)CCC(=O)Nc2nccs2)c1,13.8
4,CCn1c2ccccc2n2c(=O)c(=O)n(CC(=O)N3CCN(c4ccccc4OC)CC3)nc12,18.1
5,Brc1ccc(CN2CCN(c3ccccc3)CC2)o1,14.6
6,COc1cc(/C=N/O)ccc1OCc1ccc(C(=O)O)cc1,3.39
7,COc1ccc(Cl)cc1S(=O)(=O)N1CCC(C(=O)NCc2ccco2)CC1,-1.02
8,Cc1cccc(N(C(=O)CNC(=O)c2ccco2)C(C(=O)NC2CCCC2)c2ccncc2)c1C (stereo not shown),10.5
9,C/C(=N\OC(=O)c1ccc(Cl)c(Cl)c1)c1sc(C)nc1C,-1.44
10,Cc1nc2c(C)cccn2c1/C(O)=C1\C(=O)C(=O)N(CCN(C)C)C1c1ccco1 (stereo not shown),11.2
11,CCOC(=O)c1c(-c2ccccc2)nnn1-c1nc(OCC)nc(N2CCCCC2)n1,7.47
12,Cc1ccccc1C(=O)NN1C(=O)CSC1=S,15.5
13,CN(C)C(CNC(=O)Cc1ccc([N+](=O)[O-])cc1)c1ccccc1 (stereo not shown),4.08
14,COc1ccc(NC(=O)CSc2nnc3ccc(-c4ccccn4)nn23)cc1,16.8
15,CCOc1ccc(S(=O)(=O)N2CCN(CC(O)COc3cccc([N+](=O)[O-])c3)CC2)cc1 (stereo not shown),-36.4
16,COC(=O)c1cc(NS(=O)(=O)c2ccc3c(c2)CCC(=O)N3)cc(C(=O)OC)c1,12.5
17,N#CCC(=O)N1CCN(C(c2ccccc2)c2ccccc2)CC1,9.67
18,CNc1nc(Oc2ccccc2C(=O)OC)nc(SC)n1,3.5
19,Cc1ccc(OCC(=O)Nn2c(C)nc3ccccc3c2=O)c(C(C)C)c1,-2.35
20,NS(=O)(=O)c1ccc(CCNC(=O)c2ccc3ccccc3n2)cc1,4.48
21,CC(=O)N1CCc2c(sc(NC(=O)C3CCCN3S(=O)(=O)c3cccs3)c2C#N)C1 (stereo not shown),7.46
22,COC(=O)C1=C(O)/C(=C\c2ccc(O)c(OC)c2)N=C1C,-1.12

row,Structure (SMILES),"hERG current change (%, negative = inhibition) at 1uM [%]"
1,Cn1c(=O)c2c(nc(CN3CCN(c4cccc(Cl)c4)CC3)n2CCc2ccccc2)n(C)c1=O,5.57
2,CC(C)(C)C(=O)N1CCN(c2nc3ccc(Cl)cc3s2)CC1,8.73
3,CC12CCC(C(=O)Nc3ccccc3Cl)(C(Br)C1=O)C2(C)C (stereo not shown),10
4,O=C(NCc1ccccn1)C1CCC(=O)N1C1CCCC1 (stereo not shown),5.12
5,CC[C@H]1CN(C)C[C@@]2(C(=O)OC)Cc3c([nH]c4ccccc34)C(=O)C[C@@H]12,10.5
6,CCOc1ccccc1N1CSC2=C(C#N)C(c3c(OC)ccc4ccccc34)CC(=O)N2C1 (stereo not shown),18.2
7,CCCCc1ccc(-n2nnnc2SCC(=O)Nc2cc(OC)c([N+](=O)[O-])cc2C)cc1,12.1
8,CC1(C)C(=O)CC[C@]2(C)C3C(=O)C=C4[C@H]5C[C@@](C)(C(=O)O)CC[C@]5(C)CC[C@]4(C)[C@]3(C)CC[C@@H]12 (stereo partly shown),18.2
9,Cc1ccc(S(=O)(=O)c2cn(C)c3cc(N4CCOCC4)c(F)cc3c2=O)cc1,2.45
10,CCc1ccc(NS(=O)(=O)c2c(C(=O)N3CCOCC3)c(C)n(C)c2C)cc1,2.43
11,O=C(Cc1cccs1)Nc1ccccn1,16.9
12,COc1ccccc1/C=C/C(=O)NCC(=O)N/N=C(\CCC(=O)O)c1ccccc1,-2.9
13,O=C(CN1CCN(Cc2ccccc2)CC1)Nc1ccc(Cl)cn1,-70
14,COc1ccc([N+](=O)[O-])cc1NC(=O)c1ccc(N(Cc2ccccc2C)S(C)(=O)=O)cc1,-2.02
15,Cc1ccc(C(=O)OCC(=O)N2CC(C)CC(C)C2)cc1S(=O)(=O)N1CCOCC1 (stereo not shown),6.1
16,CC(C)(C)c1ccc(/C=C2\SC(=O)N=C2N)cc1,7.88
17,COCCNC(=O)NC(=O)CN1CCN(C(c2ccccc2)c2ccccc2)CC1,1.52
18,CC(=O)c1c(C)[nH]c(C(=O)CSc2nnc(-c3ccco3)n2Cc2ccccc2)c1C,-5.61
19,COc1ccccc1-c1nn(Cc2ccccc2)cc1/C=C/C(=O)O,8.79
